# Experimental data reported in PubChem BioAssay AID662 (National Center for Advancing Translational Sciences (NCATS), 2007).
# About 1,800 (2.5%) of roughly 71,000 compounds were called active. The shares of active, inactive and inconclusive entries below differ from those in the screen. Calls follow the shape of the dose curve; as a rule, active = well fitted activation curve with a large enough effect in the signal ratio, with a control signal flat (not every such curve was filed as active); inconclusive = small, poorly fitted or top-dose-only effect, or effect the other way, or a change in a side signal; inactive = flat fitted curve, though single readings scatter; the % refers to the signal ratio. Potencies of inconclusive entries are doubtful fits and often do not repeat.
# Assay: Cell signaling CRE-BLA (Fsk stim); as to activity change, negative = inhibition: % of control where 0% means no effect
# Settings: CHO CRE-bla reporter (cAMP response element driving beta-lactamase), forskolin EC10, beta-lactamase ratio; activity change, negative = inhibition: at 38.2 µM (top of the series) unless noted
# Outline: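 Modulation of forskolin signalling: compounds in titration series added with EC10 NKH 477 to CHO cells carrying a CRE-driven beta-lactamase reporter, 3 h, 37C. CCF4 FRET ratio (460/530 nm, ex 405 nm) gives %activity and AC50.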
# Potency is read from the fitted curve at half-maximal effect; tags tell the direction and shape of the fitted curve.
SMILES,Potency,"activity change, negative = inhibition"
CCCCN(C(=O)NC(=O)Nc1ccccc1C)S(C)(=O)=O,"inconclusive: 3.98 µM [rising, single point]",–
CCOC(=O)c1cnc(SCC(=O)NCc2cccs2)nc1N,–,inactive
COC(=O)C1=C(C)N(c2cccc(Cl)c2)C(=O)C1,"inconclusive: 15.8 µM [falling, partial curve]",–
COc1ccc(-c2nc3scc(-c4ccccc4)n3n2)cc1,–,inconclusive: -5.45%
CNC(=O)NCC12CC3CC(CC(C3)C1)C2,"inconclusive: 0.1 µM [falling, single point]",–
COc1cccc(CNC(=O)CCCNS(=O)(=O)c2cccs2)c1,–,inconclusive: -1.68%
Cn1c(=O)cc(OCCCC(=O)NCc2ccco2)c2ccccc21,–,inconclusive: 21.8%
COc1ccc2cc(CN(CCc3ccccc3)Cc3nnnn3CC3CCCO3)c(=O)[nH]c2c1 (configuration not stated),–,inactive
Cc1sc2nc(SCC(=O)NCCOCCO)n(C)c(=O)c2c1C,–,inconclusive: 33.4% [at 7.6 µM]
CCn1ncc(NC(=O)Nc2cccc(C(F)(F)F)c2)c1C(N)=O,–,inactive
COCCNC(=O)CN1CCN(C(c2ccccc2)c2ccccc2)CC1,"inconclusive: 0.631 µM [falling, full curve]",–
CCn1c2ccccc2c2cc(Nc3cc(C)nc4ncnn34)ccc21,active: 0.794 µM,–
COc1ccc(S(=O)(=O)NCC(c2cccnc2)N2CCN(C)CC2)cc1C (configuration not stated),–,inactive
Cc1ccc(O)c(C(=O)CC(=O)c2cccc(F)c2)c1,"inconclusive: 1 µM [rising, single point]",–
COc1ccccc1C(=O)Nc1ccc2oc(-c3ccc(F)cc3)nc2c1,"inconclusive: 7.94 µM [rising, partial curve]",–
O=C(Nc1nc2ccc(S(=O)(=O)N3CCCCC3)cc2s1)C1CCCO1 (configuration not stated),–,inconclusive: 3.2%
Cc1ccc(S(=O)(=O)NCC2CCC(C(=O)NCc3ccco3)CC2)cc1 (configuration not stated),–,inconclusive: -22.6%
COC(=O)C1CCN(C(=O)COc2cc3sc(C)nc3c3sccc23)CC1,"inconclusive: 15.8 µM [rising, single point]",–
CCOc1ccc(OCC)c(NS(=O)(=O)c2ccc3c(c2)n(C)c(=O)c(=O)n3C)c1,–,inconclusive: 1.99%
COc1ccc2nc(N3CCCC(C(=O)NCCCN4CCN(C)CC4)C3)sc2c1 (configuration not stated),–,inactive
COc1cccc(-c2cc(NCc3cnc(C)cn3)ncn2)c1,–,inconclusive: 28.1%
N#CCCn1c(=O)c(-c2cccs2)nc2cnc(Oc3ccccc3)nc21,"inconclusive: 2 µM [rising, partial curve]",–
O=c1c2cccc3c2c(nn1CN1CCOCC1)-c1ccccc1-3,active: 12.6 µM,–
N#C/C(=C(/O)CN1C(=O)c2ccccc2C1=O)c1nc2ccccc2[nH]1,"inconclusive: 10 µM [rising, single point]",–
CC1=NS(=O)(=O)c2cc(Cl)ccc2N1,–,inactive
Cc1ccc(-n2nnnc2SCC(=O)NCCC2=CCCCC2)c(C)c1,"inconclusive: 12.6 µM [falling, single point]",–

SMILES,Potency,"activity change, negative = inhibition"
O=C(Cc1c(C(=O)O)[nH]c2ccc(Cl)cc12)Nc1ccc2c(c1)OCCO2,–,inconclusive: -0.598%
COc1ccc(Oc2ncc3nc(-c4ccc(Cl)cc4)c(=O)n(C[C@H]4CCCO4)c3n2)cc1,–,inconclusive: 5.25%
Cc1cccc(N2CCN(S(=O)(=O)c3ccc4c(c3)CCC(=O)N4)CC2C)c1 (configuration not stated),–,inconclusive: -22.8%
Cc1[nH]nc(N=Cc2c(O)n(C)c(=O)n(C)c2=O)c1-c1ccccc1,"inconclusive: 20 µM [falling, single point]",–
CCOC(=O)c1c(-c2ccccc2)csc1NC(=O)CSc1nnnn1C,"inconclusive: 3.16 µM [rising, single point]",–
Cc1csc2nc(CCNS(=O)(=O)c3cccs3)cn12,"inconclusive: 12.6 µM [rising, single point]",–
COc1ccc(NC(=O)N2CCC3(CC2)CCN(C(=O)c2cc(C(F)(F)F)cc(C(F)(F)F)c2)CC3)cc1,–,inactive
O=C(COC(=O)c1ccco1)NCc1cccs1,–,inconclusive: -8.47%
COc1ccc(-c2nc(-c3ccccc3OC)no2)cc1OC,"inconclusive: 10 µM [rising, partial curve]",–
C=CCn1c(Br)nc2c1c(=O)n(C)c(=O)n2C,–,inconclusive: 17.5%
Cc1ccc(C)c(Cn2nnc3c(=O)[nH]c(C4CCN(C(=O)c5cccs5)CC4)nc32)c1,"inconclusive: 12.6 µM [rising, single point]",–
Oc1c(C(c2ccccc2)N2CCc3ccccc3C2)sc2ncnn12 (configuration not stated),"inconclusive: 25.1 µM [rising, single point]",–
C=CCc1c(C)nc(SC)nc1Nc1ccc(C(C)=O)cc1,active: 10 µM,–
Cc1ccn2cc(CNS(=O)(=O)c3ccc(Cl)s3)nc2c1,"inconclusive: 7.94 µM [rising, partial curve]",–
CN1CCN(c2ncc3nc(-c4cc(F)cc(F)c4)c(=O)n(C)c3n2)CC1,"inconclusive: 10 µM [rising, partial curve]",–
O=C(NCc1ccco1)c1cc(-c2ccc(Cl)cc2)on1,–,inconclusive: 3.91%
CCN(CC)S(=O)(=O)c1cc(C(=O)Nc2nncs2)c(Cl)cc1Cl,–,inconclusive: -1.65%
NS(=O)(=O)c1ccc(NS(=O)(=O)/C=C/c2ccccc2)cc1,–,inactive
COc1cccc(Cn2c(=O)c(-c3cccs3)nc3cnc(N4CCOCC4)nc32)c1,"inconclusive: 2.51 µM [rising, full curve]",–
Cc1ccc(S(=O)(=O)Nc2ccc(C(=O)Nc3cc(C)on3)cc2)cc1,–,inconclusive: -10.7%
CCCCn1c(SCC(=O)Nc2ccc3c(c2)OCO3)nc2c1c(=O)n(C)c(=O)n2C,"inconclusive: 3.98 µM [rising, full curve, poor fit]",–
CC(C)Sc1nc(N)c2c3c(sc2n1)CN(C)CC3,–,inconclusive: -11.6%
C[C@H](CCC(=O)O)[C@H]1CC[C@]2(C)[C@@H]3C(=O)C[C@H]4C(C)(C)[C@@H](O)CC[C@]4(C)[C@H]3C(=O)C[C@@]12C,–,inactive: 10.9% [at 7.6 µM]
Cc1cccc(N2CCN(C(=O)CS(=O)(=O)Cc3nc(-c4ccccc4F)oc3C)CC2C)c1 (configuration not stated),–,inconclusive: -28.7%
COc1ccc(-c2cc3nc4c(c(=O)n3[nH]2)CCC4)cc1,–,inconclusive: 29%
C[C@]1(OC(=O)/C=C\c2ccccc2)C[C@@H](O)[C@@]2(O)C=CO[C@@H](O[C@H]3O[C@@H](CO)[C@@H](O)[C@@H](O)[C@@H]3O)[C@H]21,–,inactive

SMILES,Potency,"activity change, negative = inhibition"
N#Cc1c(/N=C/c2cccs2)sc2c1CCCCC2,–,inactive
Cc1ccc(-c2csc(NC(=O)c3ccno3)n2)cc1,–,inactive
Cn1c(=O)c2ncn(CC(=O)Nc3ccc4c5c(cccc35)CC4)c2n(C)c1=O,–,inactive
Cc1cc(NC(=O)CCCC(=O)N(CC(=O)NC2CCCCC2)c2ccccc2)no1,–,inactive
C[C@@](N)(/C=C\c1ccccc1)C(=O)O,–,inactive: 1.64% [at 7.6 µM]
Cn1c(=O)c2sccc2n2c(CCCC(=O)NCc3ccc4c(c3)OCO4)nnc12,–,inconclusive: 15.4%
COC(=O)[C@@]1(Cc2ccc(F)cc2)[C@H]2c3cc(C(=O)N4CCCC4)n(CCc4ccc(OC)c(Br)c4)c3C[C@H]2CN1C(=O)c1ccccc1,–,inconclusive: -7.03%
Cc1ccc(S(=O)(=O)N2CCOCC2)cc1C(=O)NCc1cn2ccsc2n1,–,inactive
O=C(OCCCCN1C(=O)c2ccccc2C1=O)c1ccc(Br)o1,–,inactive
C/C(=N\O)C(=O)C(CN1CCCCC1)CN1CCCCC1,–,inconclusive: -27.4%
C=C[C@@]1(C)C=C2CC[C@@H]3[C@](C)(CCC[C@@]3(C)C(=O)O)[C@H]2CC1,"inconclusive: 10 µM [rising, full curve, poor fit]",–
CCOC(=O)c1c(NC(=O)CSc2nc3cccnc3n2C)sc(C(C)=O)c1C,"inconclusive: 1 µM [rising, partial curve]",–
COc1cc2cc(CN(CCO)S(=O)(=O)c3ccccc3Cl)c(=O)[nH]c2cc1OC,"inconclusive: 12.6 µM [rising, single point]",–
O=C(CN1C(=O)c2cccc3cccc1c23)NCC1CCCO1 (configuration not stated),–,inactive
N=C1C(c2nc(-c3ccc(F)cc3)cs2)=C(O)CN1CCCN1CCOCC1,–,inconclusive: 20.5%
Cc1cccc(-n2ncc3c(Nc4ccc(F)cc4)ncnc32)c1,–,inconclusive: 1.61%
O=C(CCc1nc(-c2ccccc2F)no1)NC1CCN(Cc2ccccc2)CC1,"inconclusive: 3.98 µM [falling, full curve, poor fit]",–
CCCCn1c(NCCN(C)C)nc2c1c(=O)[nH]c(=O)n2C,–,inactive
CSCSC1=C(C#N)C(c2ccc(Cl)cc2)C(C(C)=O)=C(C)N1 (configuration not stated),–,inactive
Cc1ccc(C)c(NC(=O)Cn2nnc(C(=O)Nc3c(C)cccc3C)c2N)c1,"inconclusive: 15.8 µM [falling, single point]",–
N#CC(C(=O)NCc1ccccc1)c1nc2ccccc2nc1N1CCCC1 (configuration not stated),"inconclusive: 5.01 µM [falling, single point]",–
Cc1nc(N(C)C)c2sc(=S)n(C)c2n1,active: 2.51 µM,–
COC(=O)/C=C(\C)NC(=O)c1ccccc1Cl,"inconclusive: 10 µM [rising, single point]",–
COc1ccc(-c2nc(N)nc(C)c2Oc2ccccc2Br)c(O)c1,–,inactive
CCCOC(=O)c1ccc(Oc2cn[nH]c2-c2ccc(OC)cc2O)cc1,"inconclusive: 25.1 µM [rising, single point]",–
